Assay results: PubChem BioAssay AID1468 (National Center for Advancing Translational Sciences (NCATS), 2008)
In all, about 280,000 compounds went through this assay and about 1,100 (0.39%) were called active. This list was built around the results that the source calls inconclusive (neither active nor inactive); the mix of calls is not that of the screen. The call rests on the fitted dose curve; in most records, active means well fitted inhibition curve with a large enough effect; inconclusive means small, poorly fitted or top-dose-only effect, or effect the other way; inactive means flat fitted curve, though single readings scatter. Potencies of inconclusive entries are left out as doubtful fits.
Further: nearly all actives have a fitted effect of over 55% in size.
On the % scale 0 is the no-effect control and ±100 the full control effect; potency means the concentration at half of the fitted maximal effect; tags describe the fitted curve by direction and shape.

These compounds were tested against Microtubule-associated protein tau (Homo sapiens) (UniProt P10636) (assay: qHTS for Inhibitors of Tau Fibril Formation, Fluorescence Polarization). Settings: K18 P301L tau heparin fibrillization, Alexa594 FP, 6 h; series mostly up to 57.7 µM; activity, negative = inhibition: at the top concentration.
Sequence of UniProt P10636 (P10636 whole entry, looked up): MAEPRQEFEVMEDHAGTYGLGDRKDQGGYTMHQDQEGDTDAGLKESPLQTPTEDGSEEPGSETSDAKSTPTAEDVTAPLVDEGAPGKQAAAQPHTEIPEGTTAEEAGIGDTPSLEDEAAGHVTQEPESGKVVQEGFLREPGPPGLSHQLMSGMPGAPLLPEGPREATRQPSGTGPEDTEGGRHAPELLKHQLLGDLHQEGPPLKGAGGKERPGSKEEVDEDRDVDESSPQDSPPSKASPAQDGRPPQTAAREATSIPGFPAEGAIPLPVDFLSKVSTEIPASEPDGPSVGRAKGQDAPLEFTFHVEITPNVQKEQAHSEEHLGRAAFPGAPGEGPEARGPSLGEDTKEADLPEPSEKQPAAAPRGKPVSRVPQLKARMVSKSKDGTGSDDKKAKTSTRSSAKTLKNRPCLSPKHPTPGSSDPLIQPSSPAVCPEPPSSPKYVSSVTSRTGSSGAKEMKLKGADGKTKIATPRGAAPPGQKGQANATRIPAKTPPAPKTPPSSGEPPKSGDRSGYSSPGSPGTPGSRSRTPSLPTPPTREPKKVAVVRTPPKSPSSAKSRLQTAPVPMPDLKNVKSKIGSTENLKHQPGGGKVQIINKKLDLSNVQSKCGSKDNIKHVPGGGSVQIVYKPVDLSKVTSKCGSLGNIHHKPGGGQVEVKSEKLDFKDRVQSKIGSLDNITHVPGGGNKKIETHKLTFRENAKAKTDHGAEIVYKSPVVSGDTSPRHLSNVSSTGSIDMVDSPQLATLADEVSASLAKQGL
Procedure, shortened: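 Quantitative HTS format: compounds meet 15 uM recombinant K18 P301L tau and Alexa 594-tau tracer in 100 mM sodium acetate pH 7; 20 uM heparin triggers fibrillization at 37 C over 6 hr; FP gives the signal.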
`COc1ccc(-c2noc(CC(=O)Nc3ccc(Br)cc3C)n2)cc1` was tested, and the “activity, negative = inhibition” value was inactive: -20.7%. In the case of `COc1ccc(/C=C/C(=O)Nc2ccc3c(c2)CCC3)cc1OC`, the Potency is reported as inconclusive [inhibitor, partial curve, poor fit]. With `Cc1ccc2c(=O)cc(C(=O)Nc3ccc(S(=O)(=O)N(C)Cc4ccccc4)cc3)oc2c1C` the Potency was inconclusive [inhibitor, full curve]. In the case of `COc1cccc(C(=O)NCc2cn3ccccc3n2)c1`, the Potency is reported as inconclusive [inhibitor, single point]. In the case of `N#Cc1c(-n2cccc2)cccc1-n1cccc1`, the Potency is reported as inconclusive [inhibitor, single point]. For `CN(C)S(=O)(=O)c1cccc(NC(=O)COC(=O)c2cn(-c3ccccc3)nc2-c2ccccc2)c1`, the Potency was inconclusive [inhibitor, partial curve]. For `COc1ccc(C(=O)N/N=C/c2cc(Br)ccc2O)cc1OC`, the Potency was inconclusive [activator, partial curve, poor fit]. With `CCOc1ccc(C(=O)c2cn(CC(=O)Nc3ccc(F)cc3)c3cc4c(cc3c2=O)OCCO4)cc1` the Potency was inconclusive [inhibitor, partial curve]. For `O=C(Nc1ccc(Cl)cc1F)c1cc(S(=O)(=O)N2CCCCC2)ccc1F`, the Potency was inconclusive [inhibitor, partial curve]. With `C=C[C@]1(C)Cc2occ(C)c2C[C@H]1C(=C)C(=O)O` the “activity, negative = inhibition” value was inactive: -5.11%. For `Cc1ccc(NC(=S)Nc2cccc3cnccc23)c(C)c1`, the Potency was inconclusive [inhibitor, single point]. With `O=C(Nc1ccc(Cl)c(Cl)c1)c1ccc(Cl)c(Cl)c1` the Potency was inconclusive [inhibitor, partial curve]. In the case of `CSc1nc(C)cc(SCC(=O)Nc2ccc(Cl)cc2Cl)n1`, the Potency is reported as inconclusive [inhibitor, full curve, poor fit]. For `COc1ccc(-c2cc(C(F)(F)F)nc(SCC(=O)Nc3sc4c(c3C#N)CCC4)n2)cc1`, the Potency was inconclusive [inhibitor, partial curve, poor fit]. `CCc1cccc(NC(=O)CSc2ncc3c(n2)-c2ccc(Cl)cc2N(Cc2ccccc2)S3(=O)=O)c1` was tested, and the Potency was inconclusive [inhibitor, full curve]. With `COc1nc(Nc2cccc(C(F)(F)F)c2)nc(OC)n1` the Potency was inconclusive [inhibitor, partial curve]. For `O=C(NCCN1CCN(c2ccccc2)CC1)C1CCCN(S(=O)(=O)c2cnc[nH]2)C1` (stereo not given), the Potency was inconclusive [inhibitor, single point]. With `CCc1c(C)sc2c1CCN(C(=O)Nc1cc(OC)c(OC)c(OC)c1)C2c1ccccc1` (stereo not given) the Potency was inconclusive [activator, single point]. `CCOC(=O)Cc1ccc(NC(=O)Nc2cccc(OCc3cc(=O)n4cc(C)ccc4n3)c2)cc1` was tested, and the Potency was inconclusive [inhibitor, partial curve, poor fit]. For `O=C(CCCCCn1c(=O)c2sccc2n(CC(=O)Nc2cccc(Cl)c2)c1=O)NCc1ccc2c(c1)OCO2`, the Potency was inconclusive [inhibitor, single point]. `Cc1ccc(NC(=O)CN(C)S(=O)(=O)c2ccc(Br)s2)cc1F` was tested, and the Potency was inconclusive [inhibitor, partial curve, poor fit]. With `COc1ccc(NC(=O)CCS(=O)(=O)c2nc(-c3cccs3)cc(C(F)(F)F)n2)cc1OC` the “activity, negative = inhibition” value was inactive: -1.79%. `CC(C)CN=C(NS(=O)(=O)c1ccccc1)C(Cl)(Cl)Cl` was tested, and the Potency was inconclusive [inhibitor, single point]. For `Oc1ccc(N=Cc2ccc(-c3cccs3)s2)cc1`, the Potency was active: 14.1 µM. With `CCn1nc(C(=O)OC(C(=O)c2c[nH]c3ccccc23)c2ccccc2)c2ccccc2c1=O` (stereo not given) the Potency was inconclusive [inhibitor, partial curve]. In the case of `CC(=O)C1=C(c2ccc(Br)cc2)C(=O)c2ccccc2C1=O`, the Potency is reported as inconclusive [inhibitor, partial curve]. In the case of `CN(Cc1ccccc1)S(=O)(=O)c1ccc(NS(=O)(=O)Cc2ccccc2)cc1`, the Potency is reported as inconclusive [inhibitor, partial curve]. In the case of `Cc1c(Cl)cccc1NS(=O)(=O)c1ccc2[nH]cc(C(=O)NC3CCCC3)c(=O)c2c1`, the Potency is reported as active: 14.1 µM. For `CCOc1ccc(OCC)c(Nc2nc3ccccc3c3nnc(C)n23)c1`, the Potency was inconclusive [activator, partial curve]. `CCC1C/C(=C/c2ccco2)C(=O)/C(=C/c2ccco2)C1` (stereo not given) was tested, and the Potency was inconclusive [inhibitor, single point]. `N#CC1=C(N)SC(N)=C(C#N)C1CCC1CCCCC1` was tested, and the “activity, negative = inhibition” value was inactive: -7.48%. In the case of `Cn1c(=O)c(C=Nc2ccccc2)c(O)c2ccccc21`, the Potency is reported as inconclusive [inhibitor, full curve, poor fit]. With `CC(C)OP(=O)(c1ccc(N(C)C)cc1)C(O)c1ccncc1` (stereo not given) the Potency was inconclusive [inhibitor, partial curve]. In the case of `COc1cccc(C(=O)NC(C)C(c2cccs2)N2CCN(C)CC2)c1` (stereo not given), the Potency is reported as inconclusive [inhibitor, single point]. In the case of `CC(=O)c1cccc(NS(=O)(=O)c2ccc3[nH]c4c(c3c2)CCCCCC4)c1`, the “activity, negative = inhibition” value is reported as inactive: 4.63%. With `CC(C(=O)O)n1c(-c2ccn[nH]2)n[nH]c1=S` (stereo not given) the Potency was inconclusive [inhibitor, single point]. For `CCC(C(=O)N1CCN(c2cccc(C)c2C)CC1)n1nc(C)c2sc3ccccc3c2c1=O` (stereo not given), the Potency was inconclusive [inhibitor, partial curve]. `NC(=O)c1cccc(-c2cc(Nc3ccc(OC(F)(F)F)cc3)ncn2)c1` was tested, and the Potency was active: 28.2 µM. In the case of `CCCCOc1ccc(CNC(=O)CN2CCSc3ccccc32)cc1`, the “activity, negative = inhibition” value is reported as inactive: 7.05%. In the case of `Cc1ccccc1-c1n[nH]c(=S)n1/N=C/C=C/c1ccco1`, the Potency is reported as inconclusive [inhibitor, single point]. In the case of `COc1ccc(C(=O)/C=C/N(C)C)cc1`, the Potency is reported as inconclusive [inhibitor, single point]. In the case of `COc1cc(/C=N/NC(=O)[C@H](Cc2c[nH]c3ccccc23)NC(=O)OCC(C)C)cc([N+](=O)[O-])c1O`, the Potency is reported as inconclusive [activator, single point]. `Cc1nn(Cc2ccc(C(=O)n3cccn3)o2)c(C)c1Br` was tested, and the “activity, negative = inhibition” value was inactive: -3.01%. `COc1cccc(NC(=O)c2sc3nc(C)c(C(=O)Nc4ccc(C)cc4C)c(-c4ccccc4Cl)c3c2N)c1` was tested, and the Potency was inconclusive [inhibitor, partial curve]. `NC(N)=NC(=O)Cc1c(Cl)cccc1Cl` was tested, and the Potency was inconclusive [inhibitor, full curve]. For `Cc1ccc(CCc2nnc(SCC(=O)Nc3cc(Cl)ccc3Cl)n2-c2ccccc2)o1`, the “activity, negative = inhibition” value was inactive: -8.9%. With `Cc1[nH]c(N=Nc2ccccc2)nc1N=Nc1ccccc1` the “activity, negative = inhibition” value was inactive: -1.25%. With `COc1ccc(N2CCN(C(CNC(=O)OCc3ccccc3)c3ccco3)CC2)cc1` (stereo not given) the Potency was inconclusive [activator, partial curve, poor fit]. For `COC(=O)C1=C(c2ccccc2)c2ccccc2S(=O)(=O)N1CC(=O)Nc1cccc(C(C)=O)c1`, the Potency was inconclusive [inhibitor, single point]. `CCCNC(=O)Cn1c(=O)n(C)c2ccccc21` was tested, and the “activity, negative = inhibition” value was inactive: -1.53%. With `Cc1ccc(O)c(N=Cc2ccc(C)s2)c1` the Potency was inconclusive [inhibitor, single point]. In the case of `COc1ccccc1CNCC(=O)Nc1ccc(N2CCOCC2)cc1`, the “activity, negative = inhibition” value is reported as inactive: 11.5%. For `COc1cccc(CN2CCc3nc(Nc4ccc5c(c4)OCCO5)ncc3C2)c1`, the Potency was inconclusive [activator, partial curve, poor fit]. With `Fc1cc(F)c(C2SCCN2C(=S)Nc2cccc(C(F)(F)F)c2)c(F)c1` (stereo not given) the Potency was inconclusive [inhibitor, partial curve]. In the case of `CC(C)(C)NC(=O)Cn1c(SCC(=O)NC2CCCCC2)nc2ccccc21`, the “activity, negative = inhibition” value is reported as inactive: 7.25%. In the case of `Fc1ccc(NCc2cccn2-c2nnc(N3CCOCC3)s2)cc1`, the “activity, negative = inhibition” value is reported as inactive: -0.644%. `CCOC(=O)c1oc2ccc(S(=O)(=O)n3nc(-c4ccccc4OC)cc3N)cc2c1C` was tested, and the Potency was inconclusive [inhibitor, partial curve]. In the case of `O=C(COC(=O)c1cc(-c2cccs2)nc2ccccc12)c1ccccc1`, the Potency is reported as inconclusive [inhibitor, partial curve]. For `CCOC(=O)C1CCCN(C(=S)Nc2cccc(Cl)c2)C1` (stereo not given), the Potency was inconclusive [inhibitor, single point]. In the case of `O=C(COC(=O)c1ccccc1C(=O)c1ccccc1)Nc1ccc(SC(F)F)cc1`, the Potency is reported as inconclusive [inhibitor, single point]. With `O=C(/C=C/c1ccc(Cl)cc1Cl)Nc1cccc(S(=O)(=O)NC2=NCCC2)c1` the Potency was inconclusive [inhibitor, partial curve]. `O=c1oc2ccccc2c2oc3cc(O)c(O)cc3c12` was tested, and the Potency was inconclusive [activator, single point]. `CC/C(=C(\c1ccc(O)cc1)c1ccc(OCCN(C)C)cc1)c1ccccc1` was tested, and the “activity, negative = inhibition” value was inactive: 11.8%. In the case of `COc1ccc(-c2cc(C(=O)Oc3ccccc3)c3cc(C)ccc3n2)cc1`, the Potency is reported as inconclusive [inhibitor, partial curve]. `O=C(N/N=C/c1c[nH]c2ccccc12)c1cccc([N+](=O)[O-])c1` was tested, and the Potency was inconclusive [activator, single point].
